The values below come from PMC4336329 (PLoS ONE, 2015).

Each structure is given as a SMILES string. Screen size: about 310,000 compounds; about 2,200 (0.71%) showed an effect of 50% or more. The effect is printed as a negative number. This is one part of the list.

For the assay, the target named is human ether-à-go-go-related gene (hERG) potassium channel (human, UniProt Q12809). Kind of assay: primary screen, population patch clamp on CHO cells stably expressing hERG.
Sequence of human ether-à-go-go-related gene (hERG) potassium channel (Q12809 whole entry, looked up): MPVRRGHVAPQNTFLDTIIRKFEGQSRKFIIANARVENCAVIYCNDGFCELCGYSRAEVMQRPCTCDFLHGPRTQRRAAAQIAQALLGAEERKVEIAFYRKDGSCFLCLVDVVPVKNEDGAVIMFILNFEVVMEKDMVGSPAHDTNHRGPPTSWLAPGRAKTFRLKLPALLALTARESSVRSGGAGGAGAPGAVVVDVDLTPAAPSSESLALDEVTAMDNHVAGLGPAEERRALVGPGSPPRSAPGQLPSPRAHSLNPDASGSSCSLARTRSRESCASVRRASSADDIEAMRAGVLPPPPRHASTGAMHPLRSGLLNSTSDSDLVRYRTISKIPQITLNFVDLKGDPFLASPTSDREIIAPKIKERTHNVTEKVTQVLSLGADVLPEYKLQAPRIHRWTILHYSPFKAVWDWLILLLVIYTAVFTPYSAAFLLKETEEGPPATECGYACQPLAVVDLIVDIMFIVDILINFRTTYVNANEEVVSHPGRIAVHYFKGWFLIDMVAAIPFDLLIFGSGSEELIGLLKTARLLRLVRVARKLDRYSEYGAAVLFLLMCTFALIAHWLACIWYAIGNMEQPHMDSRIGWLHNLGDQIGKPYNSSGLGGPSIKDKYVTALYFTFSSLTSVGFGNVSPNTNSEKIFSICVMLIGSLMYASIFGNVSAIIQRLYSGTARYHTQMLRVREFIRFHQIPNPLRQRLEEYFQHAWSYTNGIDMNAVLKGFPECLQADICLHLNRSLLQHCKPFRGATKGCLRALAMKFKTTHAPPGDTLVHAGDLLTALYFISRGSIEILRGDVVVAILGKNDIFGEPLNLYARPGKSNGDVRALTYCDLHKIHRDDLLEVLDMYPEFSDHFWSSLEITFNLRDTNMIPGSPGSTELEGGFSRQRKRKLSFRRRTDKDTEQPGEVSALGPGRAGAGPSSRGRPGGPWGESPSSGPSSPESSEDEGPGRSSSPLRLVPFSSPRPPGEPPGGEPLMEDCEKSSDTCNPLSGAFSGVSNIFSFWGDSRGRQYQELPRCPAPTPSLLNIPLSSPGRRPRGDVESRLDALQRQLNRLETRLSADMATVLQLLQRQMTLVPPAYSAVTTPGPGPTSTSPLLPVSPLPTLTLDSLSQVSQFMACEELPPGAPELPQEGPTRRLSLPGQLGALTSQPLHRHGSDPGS
For `Cc1cccc(N2C(=O)NC(=O)/C(=C/c3ccc([N+](=O)[O-])o3)C2=O)c1`, the “hERG current change (%, negative = inhibition) at 1uM” value is reported as 8.27%.

Take `Cc1c(NC(=O)C(C)Sc2ncnc3ccccc23)c(=O)n(-c2ccccc2)n1C` (centres unmarked): the “hERG current change (%, negative = inhibition) at 1uM” value worked out at 6%.

Consider `O=[N+]([O-])c1ccccc1OCc1nc(-c2cccs2)no1`, for which the “hERG current change (%, negative = inhibition) at 1uM” value was 26.5%.

`Cc1ccc(NC(=O)c2ccncc2)cc1[N+](=O)[O-]`: the “hERG current change (%, negative = inhibition) at 1uM” value was 11.2%.

On to `CCc1ccc(NC(=O)c2ccc(NC(=O)C3CCCO3)cc2)cc1` (centres unmarked), for which the “hERG current change (%, negative = inhibition) at 1uM” value is reported as 15%.

Take `CCOc1ccccc1NC(=O)[C@@H](NC(=O)c1ccccc1F)C(C)C`: the “hERG current change (%, negative = inhibition) at 1uM” value amounted to 5.49%.

With `Cc1sc(NC(=O)CN2CCOCC2)c(C(=O)c2ccccc2)c1C`, the “hERG current change (%, negative = inhibition) at 1uM” value is on record as 2.49%.

For the molecule `O=C(O)C1CC(=O)N(c2ccc(F)c(F)c2)C1` (centres unmarked), the “hERG current change (%, negative = inhibition) at 1uM” value is given as 13.9%.

Regarding `CSC(C(=O)c1cc2ccccc2o1)c1ccccc1` (centres unmarked), the “hERG current change (%, negative = inhibition) at 1uM” value is 9.71%.

Consider `COc1cccc(CNC(=O)c2ccc(C)c(S(=O)(=O)N3CCCCC3)c2)c1`, for which the “hERG current change (%, negative = inhibition) at 1uM” value amounted to 5.48%.

Turning to `Cc1oc2c(CN3CCC(C)CC3)c(O)ccc2c(=O)c1-c1ccccc1`, the “hERG current change (%, negative = inhibition) at 1uM” value is -0.462%.

Consider `Cc1ccc(CN2CCN(/N=C/c3ccc(Cl)c([N+](=O)[O-])c3)CC2)cc1`, for which the “hERG current change (%, negative = inhibition) at 1uM” value is reported as 6.85%.

Consider `COc1ccccc1Oc1ccc(S(=O)(=O)N2CCCC2)cc1`, for which the “hERG current change (%, negative = inhibition) at 1uM” value is -0.125%.

As to `COc1cc(/C=N/NC(=O)COc2ccccc2[N+](=O)[O-])ccc1OC(=O)c1ccco1`, the “hERG current change (%, negative = inhibition) at 1uM” value was 5.43%.

As for `Cc1ccc(N(CC(=O)NC(C)(C)C)C(=O)CS(=O)CC(=O)Nc2ccc3c(c2)OCO3)cc1` (centres unmarked), the “hERG current change (%, negative = inhibition) at 1uM” value was 10.2%.

For the molecule `COc1ccc(C(C)=O)cc1COc1cccc2cccnc12`, the “hERG current change (%, negative = inhibition) at 1uM” value amounted to 9.4%.

Take `Cc1cc(=O)oc2c3c(cc(OCC(=O)NCc4cccnc4)c12)OC(C)(C)CC3`: the “hERG current change (%, negative = inhibition) at 1uM” value is recorded as 3.62%.

`S=C(Nc1ccc(Cl)c(Cl)c1)N1CCCC1`: the “hERG current change (%, negative = inhibition) at 1uM” value was determined as 8.19%.

For `Cl.Oc1ccc(Nc2ncnc3ccccc23)cc1`, the “hERG current change (%, negative = inhibition) at 1uM” value stood at 13.9%.

For the molecule `CN(C)CCNC(NC(=O)c1cccs1)C(Cl)(Cl)Cl` (centres unmarked), the “hERG current change (%, negative = inhibition) at 1uM” value is given as 7.35%.

As for `CCc1noc(C)c1C(=O)NCCc1ccc(OC)c(OC)c1`, the “hERG current change (%, negative = inhibition) at 1uM” value amounted to 0.92%.

Turning to `CCCCn1c(N)c(C(=O)NCCN2CCOCC2)c2nc3ccccc3nc21`, the “hERG current change (%, negative = inhibition) at 1uM” value was -21%.

Consider `O=C(CSc1nnc(-c2ccncc2)n1Cc1ccco1)Nc1nc(-c2ccccc2)cs1`, for which the “hERG current change (%, negative = inhibition) at 1uM” value worked out at 5.46%.

Take `Cc1ccc2[nH]c(=O)c(CN(Cc3cccnc3)C(=S)NCCCN(C)C)cc2c1`: the “hERG current change (%, negative = inhibition) at 1uM” value was 7.19%.

As to `Cc1[nH]c2ccccc2c1/C=N/NC(=O)c1ccccc1`, the “hERG current change (%, negative = inhibition) at 1uM” value is reported as 13.7%.

Turning to `CCn1c(N2CCC(C)CC2)nc2c1c(=O)n(C)c(=O)n2C`, the “hERG current change (%, negative = inhibition) at 1uM” value stood at 12.7%.

Consider `O=C(CC1CCCCC1)NCc1ccco1`, for which the “hERG current change (%, negative = inhibition) at 1uM” value worked out at 7.39%.

As for `COc1ccccc1/C=C1\C(=O)Nc2ccccc21`, the “hERG current change (%, negative = inhibition) at 1uM” value was determined as 9.18%.

For the molecule `COc1ccc(OC(C)C(=O)Nc2ccc([N+](=O)[O-])cc2)cc1` (centres unmarked), the “hERG current change (%, negative = inhibition) at 1uM” value worked out at 17.5%.

For `O=C(Nc1cccc(S(=O)(=O)N2CCCCC2)c1)c1c2c(nc3ccccc13)CCN(Cc1ccccc1)C2`, the “hERG current change (%, negative = inhibition) at 1uM” value was 23.6%.

As to `Cc1cc(S(=O)(=O)Nc2ccc(C(=O)N3CC(C)OC(C)C3)cc2)ccc1F` (centres unmarked), the “hERG current change (%, negative = inhibition) at 1uM” value is 1.62%.

`COc1cc(/C=N/NC(=O)Nc2ccccc2)ccc1OC(C)=O`: the “hERG current change (%, negative = inhibition) at 1uM” value amounted to 10.8%.

With `O=C(Cn1cc2c(n1)CCCCC2)N1CCCCC1`, the “hERG current change (%, negative = inhibition) at 1uM” value is reported as 9.12%.

`CCCc1nc(NCc2ccco2)c(C#N)c2c1COC(C)(C)C2`: the “hERG current change (%, negative = inhibition) at 1uM” value was found to be 7.18%.

For the molecule `c1ccc(CNC2=NCCS2)cc1`, the “hERG current change (%, negative = inhibition) at 1uM” value was found to be 17.9%.

In the case of `C/C(=N\NC(=O)c1ccc(NS(=O)(=O)c2cccs2)cc1)c1ccc2ccccc2c1`, the “hERG current change (%, negative = inhibition) at 1uM” value was found to be 9.89%.

For the molecule `C/C(=N\NC(=O)C(N)=O)c1ccc(Br)cc1`, the “hERG current change (%, negative = inhibition) at 1uM” value is 7.04%.

For the molecule `O=S(=O)(c1cc(C(F)(F)F)ccc1Cl)N1CCCCCC1`, the “hERG current change (%, negative = inhibition) at 1uM” value was 6.28%.

Turning to `O=C1CC(c2ccc(F)cc2)CC(O)=C1C=NCCN1CCNCC1` (centres unmarked), the “hERG current change (%, negative = inhibition) at 1uM” value is listed as 7.81%.

Consider `CCC(C)Nc1nc2ccccc2n2c(C)nnc12` (centres unmarked), for which the “hERG current change (%, negative = inhibition) at 1uM” value was 0.413%.

`COc1cccc(C(=O)CC(=O)C(=O)Nc2cc(OC)c(OC)c(OC)c2)c1`: the “hERG current change (%, negative = inhibition) at 1uM” value is on record as 5.64%.

With `Cc1ccccc1N(C(=O)c1csnn1)C(C(=O)NC1CCCCC1)c1ccncc1` (centres unmarked), the “hERG current change (%, negative = inhibition) at 1uM” value worked out at 16%.

Regarding `CCOC(=O)Cn1cc(C=C2C(=O)N(C)C(=O)N(C)C2=O)c2ccccc21`, the “hERG current change (%, negative = inhibition) at 1uM” value was found to be 7.84%.

With `O=C(COC(=O)CNC(=O)c1cccs1)Nc1ccccc1C(F)(F)F`, the “hERG current change (%, negative = inhibition) at 1uM” value came out at 18.1%.
